Targets with the largest changes are over-represented here; the source holds about 21,000 in all.
Compound: Cc1cc(ccc1-c1ccccc1)C(=O)N1CCCN(CC1)C(=O)CCl [compound 10]
Assay: probe-labelled cysteine peptide fold change vs DMSO (competition) (log2 fold change); higher = less target engagement (more negative = stronger competition)
Settings: THP-1, incubation time: 4 h
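Note: competitive profiling in live THP-1 cells: cysteine peptides tagged with an iodoacetamide desthiobiotin (IA-DTB) probe, intensity after compound treatment relative to DMSO-treated cells.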

Target: FBXO5_Q9UKT4_95_LSCIGSPIVSPR (UniProt Q9UKT4)
- probe-labelled cysteine peptide fold change (10 µM): -0.176
- probe-labelled cysteine peptide fold change (50 µM): -0.434

Target: FABP5_Q01469_43+47_KMGAMAKPDCIITCDGK (UniProt Q01469)
- probe-labelled cysteine peptide fold change (10 µM): -0.14
- probe-labelled cysteine peptide fold change (50 µM): -1.09

Target: EXOSC6_Q5RKV6_117_RAPPGGCEER (UniProt Q5RKV6)
- probe-labelled cysteine peptide fold change (10 µM): -0.293
- probe-labelled cysteine peptide fold change (50 µM): -1.51

Target: EGLN1_Q9GZT9_42_SSFYCCK (UniProt Q9GZT9)
- probe-labelled cysteine peptide fold change (10 µM): -0.0734
- probe-labelled cysteine peptide fold change (50 µM): -0.316

Target: EHMT2_Q96KQ7_126_GGSCPSR (UniProt Q96KQ7)
- probe-labelled cysteine peptide fold change (10 µM): 0.842
- probe-labelled cysteine peptide fold change (50 µM): 1.11

Target: EXOC5_O00471_675_QVCSGEQLANLDK (UniProt O00471)
- probe-labelled cysteine peptide fold change (10 µM): 0.191
- probe-labelled cysteine peptide fold change (50 µM): 0.123

Target: EPB41L1_Q9H4G0_111_VTLLDASEYECEVEK (UniProt Q9H4G0)
- probe-labelled cysteine peptide fold change (10 µM): -0.0494
- probe-labelled cysteine peptide fold change (50 µM): -0.235

Target: EHMT1_Q9H9B1_978_EGETPLQCASLNSQVWSALQMSK (UniProt Q9H9B1)
- probe-labelled cysteine peptide fold change (10 µM): 0.0982
- probe-labelled cysteine peptide fold change (50 µM): -0.0574

Target: EDC3_Q96F86_137_SQDVAVSPQQQQCSK (UniProt Q96F86)
- probe-labelled cysteine peptide fold change (10 µM): 0.148
- probe-labelled cysteine peptide fold change (50 µM): -0.304

Target: EHHADH_Q08426_559+566_YCPIPDVLCELGR (UniProt Q08426)
- probe-labelled cysteine peptide fold change (10 µM): -0.345
- probe-labelled cysteine peptide fold change (50 µM): 0.0389

Target: EML2_O95834_203_CSNEAVLVATFHPTDPTVLITCGK (UniProt O95834)
- probe-labelled cysteine peptide fold change (10 µM): 0.0448
- probe-labelled cysteine peptide fold change (50 µM): 0.0349

Target: FEM1A_Q9BSK4_124_AACFDGHLEVVR (UniProt Q9BSK4)
- probe-labelled cysteine peptide fold change (10 µM): 0.0849
- probe-labelled cysteine peptide fold change (50 µM): -0.115

Target: DYNC1LI2_O43237_104_CNVWILDGDLYHK<|>DYNC1LI1_Q9Y6G9_117_CNVWILDGDLYHK (UniProt Q9Y6G9+O43237)
- probe-labelled cysteine peptide fold change (10 µM): 0.0463
- probe-labelled cysteine peptide fold change (50 µM): 0.0772

Target: DPF2_Q92785_306_SGHPSCLQFTPVMMAAVK (UniProt Q92785)
- probe-labelled cysteine peptide fold change (10 µM): 0.169
- probe-labelled cysteine peptide fold change (50 µM): -0.346

Target: EIF2B4_Q9UI10_266_LKPYMSFLTQCRPLSASMHNAIK (UniProt Q9UI10)
- probe-labelled cysteine peptide fold change (10 µM): -0.0787
- probe-labelled cysteine peptide fold change (50 µM): 0.0593

Target: DOK3_Q7L591_133_LADCVSVLPADGESCPR (UniProt Q7L591)
- probe-labelled cysteine peptide fold change (10 µM): 0.185
- probe-labelled cysteine peptide fold change (50 µM): -0.0799

Target: FECH_P22830_395_ALADLVHSHIQSNELCSK (UniProt P22830)
- probe-labelled cysteine peptide fold change (10 µM): -0.103
- probe-labelled cysteine peptide fold change (50 µM): -0.0993

Target: EXOC5_O00471_254_NDIFEDAGILCQR (UniProt O00471)
- probe-labelled cysteine peptide fold change (10 µM): 0.0908
- probe-labelled cysteine peptide fold change (50 µM): 0.214

Target: ELP2_Q6IA86_38_GLLAFGTSCSVVLYDPLKR (UniProt Q6IA86)
- probe-labelled cysteine peptide fold change (10 µM): -0.0431
- probe-labelled cysteine peptide fold change (50 µM): -0.0923

Target: DSCR3_O14972_221_VETCGCAEGYAR (UniProt O14972)
- probe-labelled cysteine peptide fold change (10 µM): -0.123
- probe-labelled cysteine peptide fold change (50 µM): -1.72

Target: FAM120A_Q9NZB2_1103_TCNTNPHLNALSTDSACR (UniProt Q9NZB2)
- probe-labelled cysteine peptide fold change (10 µM): -0.0112
- probe-labelled cysteine peptide fold change (50 µM): -0.0512

Target: ERO1B_Q86YB8_207_VWNSIYEENCFKPR (UniProt Q86YB8)
- probe-labelled cysteine peptide fold change (10 µM): -0.0491
- probe-labelled cysteine peptide fold change (50 µM): 0.025

Target: DOP1B_Q9Y3R5_2199_WAFIPEVDTEGPAFLSDVEENHQECKPHTVR (UniProt Q9Y3R5)
- probe-labelled cysteine peptide fold change (10 µM): -0.308
- probe-labelled cysteine peptide fold change (50 µM): -0.13

Target: ERI1_Q8IV48_243_FLNIQCQLSR (UniProt Q8IV48)
- probe-labelled cysteine peptide fold change (10 µM): 0.0182
- probe-labelled cysteine peptide fold change (50 µM): -0.0572

Target: ENG_P17813_516_GNCVSLLSPSPEGDPR (UniProt P17813)
- probe-labelled cysteine peptide fold change (10 µM): -0.024
- probe-labelled cysteine peptide fold change (50 µM): 0.0976

Target: EDEM3_Q9BZQ6_82_LGNQVLEMFDHAYGNYMEHAYPADELMPLTCR (UniProt Q9BZQ6)
- probe-labelled cysteine peptide fold change (10 µM): 0.0949
- probe-labelled cysteine peptide fold change (50 µM): 0.28

Target: EIF3B_P55884_527_NGDYLCVK (UniProt P55884)
- probe-labelled cysteine peptide fold change (10 µM): 0.0838
- probe-labelled cysteine peptide fold change (50 µM): 0.0137

Target: FASN_P49327_2468_TGGAYGEDLGADYNLSQVCDGK (UniProt P49327)
- probe-labelled cysteine peptide fold change (10 µM): 0.13
- probe-labelled cysteine peptide fold change (50 µM): -0.536

Target: FER_P16591-3_26_TCALMFSSEPSTSEVHRDQER (UniProt P16591)
- probe-labelled cysteine peptide fold change (10 µM): 0.177
- probe-labelled cysteine peptide fold change (50 µM): -0.0627

Target: FANCF_Q9NPI8_89_GPVPGLANFQALGHCDVLLSLR (UniProt Q9NPI8)
- probe-labelled cysteine peptide fold change (10 µM): 0.0316
- probe-labelled cysteine peptide fold change (50 µM): -0.03

Target: EPRS_P07814_856_INEAVECLLSLK (UniProt P07814)
- probe-labelled cysteine peptide fold change (10 µM): -0.0271
- probe-labelled cysteine peptide fold change (50 µM): -0.0672

Target: FAM126A_Q9BYI3_371_AASSTSQSGLSNSSHNCSNKPSIGK (UniProt Q9BYI3)
- probe-labelled cysteine peptide fold change (10 µM): -0.311
- probe-labelled cysteine peptide fold change (50 µM): -1.19

Target: ECM1_Q16610_259_TRPHWCCTR (UniProt Q16610)
- probe-labelled cysteine peptide fold change (10 µM): -0.169
- probe-labelled cysteine peptide fold change (50 µM): -0.393

Target: EIF1_P41567_94_NICQFLVEIGLAKDDQLK (UniProt P41567)
- probe-labelled cysteine peptide fold change (10 µM): 0.185
- probe-labelled cysteine peptide fold change (50 µM): -1.67

Target: DOK1_Q99704_115_SHLLAADAPSSAAWVQTLCR (UniProt Q99704)
- probe-labelled cysteine peptide fold change (10 µM): -0.149
- probe-labelled cysteine peptide fold change (50 µM): -0.373
